From ChEMBL document CHEMBL4888484, “Replenishing the malaria drug discovery pipeline: Screening and hit evaluation of the MMV Hit Generation Library 1 (HGL1) against asexual blood stage Plasmodium falciparum ,using a nano luciferase reporter read-out” (2022)
Out of some 150,000 compounds screened, about 540 (0.36%) showed an effect of 50% or more. This is one part of the list.

The molecules below were run on Plasmodium falciparum (assay: Primary screen in NF54 nanoGlo assay, in single point, at 2uM, 72h; a lower Z score goes with more inhibition). Conditions: timepoint 72 hour.
Assay type: functional, Erythrocyte
For `O=C(CC1CCC1)N1CCN([C@H]2CN3CCC2CC3)CC1`, the “% Inhibition” value was 4% and the Z score was -0.72. For `Cc1ccncc1CN1CCC(CF)CC1`, the “% Inhibition” value was -1% and the Z score was 0.25. For `O=C(Nc1ccccc1Cl)N1C2CCC1c1cn[nH]c1C2` (configuration not stated), the “% Inhibition” value was 33% and the Z score was -3.78. In the case of `C[C@@H](Cc1cccc(Cl)c1)NC(=O)CCN1CCOC1=O`, the “% Inhibition” value is reported as -3% and the Z score is reported as 0.34. `Cc1cc(-c2cccc3c2CCNC3)ccc1O` was tested, and the “% Inhibition” value was -8% and the Z score was 1.58. With `Cc1noc(C)c1C(=O)N1C[C@@H]2CC[C@H]1CN(Cc1cscn1)C2` the “% Inhibition” value was -11% and the Z score was 1.84. In the case of `Cc1ccsc1CN1C[C@@H]2OC(=O)N(Cc3ccccn3)[C@@H]2C1`, the “% Inhibition” value is reported as 4% and the Z score is reported as -0.54. With `Cc1cccc(-n2nnnc2C2(NC(C)C)CCCCC2)c1` the “% Inhibition” value was 1% and the Z score was -0.12. In the case of `COCCn1cncc1CN1[C@@H]2CC[C@H]1C[C@@H](c1ccc(F)c(C)c1)C2`, the “% Inhibition” value is reported as 0% and the Z score is reported as -0.02. In the case of `O=C(c1ccc(COc2ccc(Br)cc2)o1)N1CCC2(CC1)OCCO2`, the “% Inhibition” value is reported as -11% and the Z score is reported as 1.1. With `COc1ncc(CN2CCC3(CCCC3)C2)cn1` the “% Inhibition” value was -2% and the Z score was 0.24. With `CCCN1CCCN(C(=O)Cc2c(C)nn(C)c2C)CC1` the “% Inhibition” value was -9% and the Z score was 0.87. In the case of `Oc1ccccc1C[C@H]1CC2CCN1CC2`, the “% Inhibition” value is reported as -1% and the Z score is reported as 0.12. In the case of `O=C(CCc1nnc2ccc(N3CCCC3)nn12)N1CCC2(CC1)OCCO2`, the “% Inhibition” value is reported as -21% and the Z score is reported as 2.02. With `Cn1c(N2CCN3CCCC[C@H]3C2)c(C#N)c(=O)n(C)c1=O` the “% Inhibition” value was -8% and the Z score was 1.18. With `Cc1ccccc1C[C@H](C)NC(=O)C(C)(C)NC(=O)C(F)(F)F` the “% Inhibition” value was -4% and the Z score was 0.33. `CC(Cc1ccc(F)cc1Cl)NC(C)c1ncn(C)n1` (configuration not stated) was tested, and the “% Inhibition” value was -8% and the Z score was 1.07. With `CCn1cc(C(=O)NCc2ccccc2C)c2cccnc21` the “% Inhibition” value was -3% and the Z score was 0.31. `O=C(Nc1nccs1)C1CC2CCC1N2c1cnc2ccccc2n1` (configuration not stated) was tested, and the “% Inhibition” value was -10% and the Z score was 1.33. For `C[C@@H](Cc1ccccc1F)NCCn1ccnc1`, the “% Inhibition” value was -3% and the Z score was 0.34. `COCc1n[nH]c([C@@H](N)Cc2ccccc2)n1` was tested, and the “% Inhibition” value was 1% and the Z score was -0.1. `Cc1ccc(Cn2cccc2C(=O)C(=O)N2CCC3(CC2)OCCO3)cc1` was tested, and the “% Inhibition” value was -12% and the Z score was 1.11. In the case of `Fc1cc(CNCC(F)F)ccc1Cl`, the “% Inhibition” value is reported as -7% and the Z score is reported as 0.98. With `CC[C@](NC(=O)c1ccn(C(C)C)n1)(C(=O)OC)c1ccccc1` the “% Inhibition” value was 4% and the Z score was -0.51. For `CN(C)c1ccc(C(=O)NC[C@H]2C[C@@H]3CC[N@]2C[C@@H]3CN2CCN(c3ccccn3)CC2)cc1`, the “% Inhibition” value was 33% and the Z score was -3.71. `O=C(CCn1cncn1)N1C[C@@H](c2ccc(F)cc2)[C@@H]2[C@H]1C1CCN2CC1` was tested, and the “% Inhibition” value was 4% and the Z score was -0.35. For `O=C(Cc1ccc(-c2ccccc2)cc1)N1CCC2(CC1)OCCO2`, the “% Inhibition” value was 14% and the Z score was -1.8. With `CC(C)n1cncc1CN1CC2(CC(F)C2)C1` the “% Inhibition” value was 9% and the Z score was -0.95. With `N#Cc1ccc(N2C[C@H](c3ccccc3)[C@@H]3[C@H]2C2CCN3CC2)nc1` the “% Inhibition” value was -11% and the Z score was 1.41. With `C[N+]12CCC(CC1)[C@@H](C(O)(c1cccc(Cl)c1)c1cccc(Cl)c1)C2` the “% Inhibition” value was 35% and the Z score was -6.68. With `c1cc2c(c(-c3nccc4ccccc34)c1)CCNC2` the “% Inhibition” value was -1% and the Z score was 0.15. In the case of `Cc1c(C(=O)NCC2(C3CC3)CC2)cnn1C1CCOCC1`, the “% Inhibition” value is reported as 4% and the Z score is reported as -0.81. With `Cc1nnc(N2CCC[C@H]2c2cncc(Br)c2)nc1C` the “% Inhibition” value was 5% and the Z score was -0.88. For `Cn1nc(C(=O)N2C[C@@H]3NCCO[C@H]3C2)c2ccccc2c1=O`, the “% Inhibition” value was -11% and the Z score was 2.25. `CN1CCN(c2ccc3ncc(=O)n(C)c3n2)CC1` was tested, and the “% Inhibition” value was -3% and the Z score was 0.57. `COc1ccc(S(=O)(=O)N2CCC3CCC(C2)N3C(C)C)cn1` (configuration not stated) was tested, and the “% Inhibition” value was -1% and the Z score was 0.13. In the case of `Cn1cccc1C(=O)C(=O)N1C[C@@H](c2cc(F)cc(F)c2)[C@@H]2[C@H]1C1CCN2CC1`, the “% Inhibition” value is reported as -6% and the Z score is reported as 0.95. In the case of `CC(C)(C)c1ccc(OC(=O)NC(C(F)(F)F)C(F)(F)F)cc1`, the “% Inhibition” value is reported as -1% and the Z score is reported as 0.24. `C[C@@H](Cc1cccc(Br)c1)NCCN1C(=O)CNC1=O` was tested, and the “% Inhibition” value was 3% and the Z score was -0.31. For `Cc1cc(CC(=O)N(C)CCN(C)C2CC2)on1`, the “% Inhibition” value was -1% and the Z score was 0.06. In the case of `O=C(Nc1ccc(Cl)c(Cl)c1)[C@@H]1CCCCN1CCn1c(=O)oc2cccnc21`, the “% Inhibition” value is reported as -9% and the Z score is reported as 1.19. `COC(c1ccccc1)C(C)NCc1sc(C)nc1C` (configuration not stated) was tested, and the “% Inhibition” value was -10% and the Z score was 1.32. For `Cn1cncc1CN1C[C@H]2CC[C@@H](C1)N(Cc1ccccn1)C2`, the “% Inhibition” value was -2% and the Z score was 0.23. In the case of `Cc1nc2ccccc2c(=O)n1N1C[C@@]1(C)C#Cc1ccccc1`, the “% Inhibition” value is reported as -39% and the Z score is reported as 4.57. In the case of `O=C(Oc1cccc2cccnc12)N1CCCCC1`, the “% Inhibition” value is reported as 4% and the Z score is reported as -0.73. For `CC(C)CN(C1CCN(C)CC1)C1CN(C(=O)Cc2c[nH]c3ccccc23)C1`, the “% Inhibition” value was 4% and the Z score was -0.7. For `CCOc1cc(=O)c(C(=O)N2CCC3(CC2)OCCO3)nn1-c1ccc(F)c(F)c1`, the “% Inhibition” value was 28% and the Z score was -3.68. For `COCc1ccc(C(=O)N2C[C@H](c3ccccc3)[C@@H]3[C@H]2C2CCN3CC2)o1`, the “% Inhibition” value was -2% and the Z score was 0.2. `Cc1noc([C@@H]2CN(C(=O)Cc3ccccc3C)CCCN2CC(C)C)n1` was tested, and the “% Inhibition” value was -2% and the Z score was 0.4. In the case of `CCn1c(=O)oc2cc(NS(=O)(=O)c3cc(C)cc(C)c3C)ccc21`, the “% Inhibition” value is reported as 28% and the Z score is reported as -3.81. `Cc1cc(C(=O)N2CCC(c3n[nH]c(=O)o3)CC2)c(C)cc1Cl` was tested, and the “% Inhibition” value was -5% and the Z score was 0.7. `CC1(C)CCc2[nH]c(=O)c(C(=O)N3CCC(Nc4ccccc4Cl)CC3)cc2C1` was tested, and the “% Inhibition” value was -4% and the Z score was 0.49. `Cc1cc(C)c(CNc2ccc(C#N)cn2)c(=O)[nH]1` was tested, and the “% Inhibition” value was -8% and the Z score was 1.16. For `Cc1nonc1-c1nc(-c2c(C)ncc3c2CCNC3)no1`, the “% Inhibition” value was -5% and the Z score was 0.69. `CCCC(NC1CCN2CCCC2C1)c1ccccn1` (configuration not stated) was tested, and the “% Inhibition” value was -11% and the Z score was 1.57. With `COCCCCN1CCN(C(=O)Cc2c[nH]c3ccccc23)CC1` the “% Inhibition” value was -8% and the Z score was 0.83. `CC1CCN2c3cc(Cl)ccc3CC3(C(=O)N(C)C(=O)N(C)C3=O)C2C1` (configuration not stated) was tested, and the “% Inhibition” value was -11% and the Z score was 2.07. In the case of `O=c1[nH]c2cc(-c3cc(F)cc4cccnc34)ccc2o1`, the “% Inhibition” value is reported as -7% and the Z score is reported as 1.26. With `Cn1nnc2c(N3CC4CC(C3)c3cccc(=O)n3C4)ncnc21` (configuration not stated) the “% Inhibition” value was -11% and the Z score was 1.71. In the case of `Cc1ccnc(N2CCN(C)C3(CCCCC3)C2)n1`, the “% Inhibition” value is reported as 0% and the Z score is reported as -0.03. For `COCCc1noc(CN[C@@H](C)Cn2cncn2)n1`, the “% Inhibition” value was -10% and the Z score was 1.77. For `CCc1cccc(NC(=O)CC2CCN(S(=O)(=O)c3ccc4c(c3)oc(=O)n4C(C)C)CC2)c1`, the “% Inhibition” value was -5% and the Z score was 0.47. In the case of `C[C@@H](Cc1ccc2ccccc2c1)NC1CCN(S(C)(=O)=O)CC1`, the “% Inhibition” value is reported as 0% and the Z score is reported as -0.03. With `Cn1cc(C(F)(F)F)nc1[C@H]1CCCNC1` the “% Inhibition” value was -3% and the Z score was 0.43. `OC1CC2CCC(C1)N2Cc1ccoc1` (configuration not stated) was tested, and the “% Inhibition” value was -8% and the Z score was 1.32. For `CC(C)n1c(=O)[nH]c2c(C(=O)N3CCC4(CC3)OCCO4)snc2c1=O`, the “% Inhibition” value was -14% and the Z score was 2.31. For `Cc1nc(-c2ccco2)cc([C@H]2CN3CC[C@H]2C[C@@H]3CNC(=O)NC2CCCCC2)n1`, the “% Inhibition” value was 3% and the Z score was -0.56. In the case of `Cn1ccnc1CN1C[C@@H]2CC[C@H]1CN(C(=O)c1cccnc1)C2`, the “% Inhibition” value is reported as 5% and the Z score is reported as -1.06. With `CC(C)(C)OC(=O)NC1CCC2CN(Cc3ccncc3)CC21` (configuration not stated) the “% Inhibition” value was -3% and the Z score was 0.34. With `O=C(c1ccc[nH]1)C(Cl)(Cl)Cl` the “% Inhibition” value was 18% and the Z score was -2.1. `Cc1ncsc1C(=O)N1C[C@@H](c2ccc3c(c2)OCO3)[C@@H]2[C@H]1C1CCN2CC1` was tested, and the “% Inhibition” value was -2% and the Z score was 0.25. With `C1CCC(C2NCCN3CCCC23)CC1` (configuration not stated) the “% Inhibition” value was 2% and the Z score was -0.29. For `C=CCc1cc(-c2c(C#N)c(N)nc3c2[C@@H]2CC[C@H](C3)N2C)ccc1O`, the “% Inhibition” value was 9% and the Z score was -1.27. `COc1ccc2c(c1)[C@@]1(CCN(C(=O)c3ccccc3OC)C1)C(=O)N2C` was tested, and the “% Inhibition” value was -8% and the Z score was 1.12. `c1cncc([C@@H]2CCCN2c2nnc(C3CC3)s2)c1` was tested, and the “% Inhibition” value was 2% and the Z score was -0.36. In the case of `COc1ccc([C@H]2C[C@@H](O)[C@@H](O)[C@@H]2NCC(C)C)cc1`, the “% Inhibition” value is reported as -12% and the Z score is reported as 1.52. `COC1CCN(S(=O)(=O)N2CCC[C@H]2c2cccnc2)CC1` was tested, and the “% Inhibition” value was -13% and the Z score was 2.35. With `COc1ccccc1CN1CC[C@]2(CCOC2)C1` the “% Inhibition” value was -15% and the Z score was 1.85. `COC(=O)C1CC2C(CCC(C)N2CC(N)=O)O1` (configuration not stated) was tested, and the “% Inhibition” value was -3% and the Z score was 0.51. In the case of `Cc1nn(-c2ccccc2)c(C)c1S(=O)(=O)N1CCC(C(=O)N2CCC3(CC2)OCCO3)CC1`, the “% Inhibition” value is reported as -7% and the Z score is reported as 0.95. For `COC[C@@H](O)CNC(C)(C)Cc1ccc(Br)cc1`, the “% Inhibition” value was -14% and the Z score was 2.23. For `NC1(C(=O)N2C[C@@H](c3cccc(F)c3F)[C@@H]3[C@H]2C2CCN3CC2)CCC1`, the “% Inhibition” value was -4% and the Z score was 0.76. In the case of `C#C[C@H]1C[N@@]2CC[C@H]1C[C@@H]2CNS(=O)(=O)c1ccc(OC)cc1`, the “% Inhibition” value is reported as -6% and the Z score is reported as 0.93. With `Cc1ccc(-c2nccn2CCc2c[nH]cn2)c(C)c1F` the “% Inhibition” value was -1% and the Z score was 0.18. With `O=C(c1c[nH]c2ccccc12)[C@H]1CCCNC1` the “% Inhibition” value was -6% and the Z score was 0.76. With `CN1C(=O)N(C)C(=O)C(Cc2nnc(-c3ccccc3Br)o2)(Cc2nnc(-c3ccccc3Br)o2)C1=O` the “% Inhibition” value was -4% and the Z score was 0.54.
